Here are results for 22 compounds from ChEMBL document CHEMBL4888484, “Replenishing the malaria drug discovery pipeline: Screening and hit evaluation of the MMV Hit Generation Library 1 (HGL1) against asexual blood stage Plasmodium falciparum ,using a nano luciferase reporter read-out” (2022).

Among all 150,000 compounds or so, about 540 (0.36%) showed an effect of 50% or more. Some of the results follow.

In general, % Inhibition refers to the change of the read-out against control, counted positive when it falls.

For the assay, the system named is Plasmodium falciparum. As to the kind of experiment: Primary screen in NF54 nanoGlo assay, in single point, at 2uM, 72h; a lower Z score goes with more inhibition. It is filed as functional, Erythrocyte. The settings on record: timepoint 72 hour.
For the compound `Cc1nn(C)c(N)c1C(=O)N(C)[C@@H](C)c1ccc(-c2ccccc2)cc1`, the “% Inhibition” value is reported as -22% and the Z score was determined as 2.19.
In the same order, the values of `C=CCN1C[C@@H](c2nc(COc3ccc(C(C)(C)C)cc3)n[nH]2)CC1=O` are -15% and 1.63.
In the same order, the values of `CCO[C@H]1COC[C@@H]1NS(=O)(=O)c1ccc(-c2c(C)noc2C)s1` are -15% and 3.09.
In the same order, the values of `CCc1ccc(CN2CCCn3nc(CNC(=O)N(C)C)cc3C2)nc1` are -14% and 1.87.
Turning to `CCCCCN(C(=O)Nc1cnn(CCOC)c1)C(C)C`, the “% Inhibition” value was -1% and the Z score is reported as 0.26.
In the same order, the values of `COc1ccc2cc3n(c2c1)C[C@@](C)(C(=O)NC1CCCCCC1)N(CCCN1CCCCC1)C3=O` are 4% and -0.59.
With `O=C([C@H]1CCCN(C2CCN(c3nc4ccccc4o3)CC2)C1)N1CC=CCC1`, the “% Inhibition” value is -1% and the Z score is recorded as 0.14.
In the same order, the values of `Cc1nnc2n1[C@@H](C)CN(C(=O)c1cccc(N(C)C)c1)C2` are -7% and 1.33.
For `Cc1cccnc1N[C@@]1(C(F)(F)F)N=C(c2ccccc2)N(C2CCCC2)C1=O`, the “% Inhibition” value is reported as -1% and the Z score is recorded as 0.07.
In the same order, the values of `Cc1ccc(/C(N)=N/NC(=O)OC(C)(C)C)cc1` are -8% and 0.86.
In the same order, the values of `COc1cccc([C@@H]2Cn3nnc(-c4nc(-c5ccc(F)c(Br)c5)no4)c3CO2)c1` are -5% and 0.54.
In the case of `NC(=O)c1cccc(CNCC2(O)CCCCCC2)c1`, the “% Inhibition” value is reported as -6% and the Z score is recorded as 0.87.
`O=C(C[C@H]1Cc2ccccc2C2(CCN(Cc3cccnc3)CC2)O1)NCC1CC1`: the “% Inhibition” value is -8% and the Z score came out at 1.07.
Consider `CN1CCC[C@@]2(CCN(CC(=O)Nc3ccc4c(c3)CCC4)C2)C1`, for which the “% Inhibition” value is listed as 3% and the Z score was -0.57.
In the same order, the values of `CC(C)Cn1cc(C(F)F)c(C(=O)NCc2ccncc2)n1` are -8% and 0.82.
In the same order, the values of `CCC(CC)N[C@H]1CCCc2cccnc21` are -9% and 1.43.
In the same order, the values of `COc1ccc(CNC(=O)c2cnn3c(=O)cc(C)[nH]c23)cc1` are -12% and 1.55.
As for `CC[C@@H]1Oc2ccc(Cl)cc2N(CC(=O)N2CCN(c3cc(=O)n(C)c(=O)n3C)CC2)C1=O`, the “% Inhibition” value was -1% and the Z score is recorded as 0.14.
In the same order, the values of `Cc1noc2nc(C3CC3)cc(C(=O)N[C@@H]3Cc4ccccc4[C@H]3O)c12` are -8% and 1.04.
For the compound `COc1ccc([C@H]2C(C(N)=O)=C(C)Nc3nc(C)nn32)cc1OCc1ccccc1`, the “% Inhibition” value is -9% and the Z score was found to be 1.2.
In the same order, the values of `Cc1ccc(-c2cc(C(=O)N(Cc3cccs3)[C@H]3CCS(=O)(=O)C3)no2)cc1F` are -11% and 2.15.
In the same order, the values of `O=C(NCC1(Cn2ccnc2)CC1)c1cncc(Cl)c1` are -12% and 1.48.
